{
  "source": "patent US20090291999A1",
  "about": "“Agent Exhibiting a Neurotropic, Neuromodulator, Cerebrovascular and Anti-Stroke Activity” (AKHAPKINA, Valentina Ivanovna, priority 2006, published 2009)",
  "key": {"[1]": {"system": "rats with distal occlusion of medial cerebral artery (OMCA)", "assay": "Ischemic stroke (OMCA) model: brain damage area by TTC staining", "assay_type": "in vivo, rat", "conditions": "for Volume of damage area (DA) / Volume of ipsilateral hemisphere (IH) / DA/IH relation: 72 hours after OMCA"}, "[2]": {"system": "rats with distal occlusion of medial cerebral artery (OMCA)", "assay": "Ischemic stroke (OMCA) model: course injections for 10 days, ipsilateral hemisphere volume", "assay_type": "in vivo, rat", "conditions": "for Volume of ipsilateral hemisphere: OMCA + 300 mg/Kg intraperitoneally for 10 days from 5 minutes after operation"}, "[3]": {"system": "rats with hemorrhagic stroke (intracerebral post-traumatic hematoma)", "assay": "Hemorrhagic stroke model: conditioned reflex of passive avoidance (CRPA)", "conditions": "100 mg/Kg for 7 days; 7th and 14th days after the HS operation"}, "[4]": {"conditions": "Group 6: 100 mg/Kg 60 minutes prior to OMCA"}, "[5]": {"conditions": "Group 8: 300 mg/Kg 60 minutes prior to OMCA"}, "[6]": {"conditions": "Group 9: 100 mg/Kg in 5 minutes after OMCA"}, "[7]": {"conditions": "Group 10: 200 mg/Kg in 5 minutes after OMCA"}, "[8]": {"conditions": "Group 11: 300 mg/Kg in 5 minutes after OMCA"}},
  "note": "Several values for one entry are separate records, joined by “and”; a condition that tells them apart may be missing. Equal values may be shown once.",
  "data": [
    {"smiles": "NC(=O)CN1CC(c2ccccc2)CC1=O", "note": "(centres unmarked) [Phenotropil, N-carbomoyl-methyl-4-phenyl-2-pyrrolidon]", "values": [
      {"measurement": "Reduction in the focal damage area compared to the control group", "setting": "[1]; 100 mg/Kg 60 minutes prior to the operation", "result": 36, "unit": "%"},
      {"measurement": "Reduction in the brain damage area", "setting": "[1]; 100 mg/Kg in 5 minutes after the operation", "result": 4, "unit": "%"},
      {"measurement": "Reduction in the focal damage area compared to the control group", "setting": "[1]; 200 mg/Kg 60 minutes prior to the operation", "result": 43, "unit": "%"},
      {"measurement": "Reduction in the brain damage area", "setting": "[1]; 200 mg/Kg in 5 minutes after the operation", "result": 6, "unit": "%"},
      {"measurement": "Reduction in the focal damage area compared to the control group", "setting": "[1]; 300 mg/Kg 60 minutes prior to the operation", "result": 48, "unit": "%"},
      {"measurement": "Reduction in the brain damage area", "setting": "[1]; 300 mg/Kg in 5 minutes after the operation", "result": 17, "unit": "%"},
      {"measurement": "Volume of damage area (DA)", "setting": "[1]; [4]", "result": "58.2 ± 5.71", "unit": "mm^3"},
      {"measurement": "Volume of ipsilateral hemisphere (IH)", "setting": "[1]; [4]", "result": "786.6 ± 4.74", "unit": "mm^3"},
      {"measurement": "DA/IH relation", "setting": "[1]; Group 6: 100 mg/Kg 60 minutes prior to OMCA, 100 mg/kg", "result": "7.4±0.72% and 7.39 ± 0.72 %"},
      {"measurement": "Volume of damage area (DA)", "setting": "[1]; Group 7: 200 mg/Kg 60 minutes prior to OMCA", "result": "49.2 ± 6.13", "unit": "mm^3"},
      {"measurement": "Volume of damage area (DA)", "setting": "[1]; [5]", "result": "48.1 ± 5.99", "unit": "mm^3"},
      {"measurement": "Volume of ipsilateral hemisphere (IH)", "setting": "[1]; [5]", "result": "797 ± 4.33", "unit": "mm^3"},
      {"measurement": "DA/IH relation", "setting": "[1]; Group 8: 300 mg/Kg 60 minutes prior to OMCA, 300 mg/kg", "result": "6.03 ± 0.75", "unit": "%"},
      {"measurement": "Volume of damage area (DA)", "setting": "[1]; [6]", "result": "86.5 ± 6.53", "unit": "mm^3"},
      {"measurement": "Volume of ipsilateral hemisphere (IH)", "setting": "[1]; [6]", "result": "787.9 ± 5.24", "unit": "mm^3"},
      {"measurement": "DA/IH relation", "setting": "[1]; Group 9: 100 mg/Kg in 5 minutes after OMCA, 100 mg/kg", "result": "11 ± 0.87", "unit": "%"},
      {"measurement": "Volume of damage area (DA)", "setting": "[1]; [7]", "result": "85.9 ± 7.78", "unit": "mm^3"},
      {"measurement": "Volume of ipsilateral hemisphere (IH)", "setting": "[1]; [7]", "result": "794.8 ± 4.27", "unit": "mm^3"},
      {"measurement": "DA/IH relation", "setting": "[1]; Group 10: 200 mg/Kg in 5 minutes after OMCA, 200 mg/kg", "result": "10.79 ± 0.97% and 10.8 ± 0.97%"},
      {"measurement": "Volume of damage area (DA)", "setting": "[1]; [8]", "result": "76.2 ± 7.59", "unit": "mm^3"},
      {"measurement": "Volume of ipsilateral hemisphere (IH)", "setting": "[1]; [8]", "result": "801.2 ± 3.63", "unit": "mm^3"},
      {"measurement": "DA/IH relation", "setting": "[1]; Group 11: 300 mg/Kg in 5 minutes after OMCA, 300 mg/kg", "result": "9.5 ± 0.94", "unit": "%"},
      {"measurement": "Reduction of brain damage area at the average", "setting": "[1]; injected 60 minutes before the operation and once a day for three days, average over doses", "result": 42, "unit": "%"},
      {"measurement": "Changes in the hemisphere volume", "setting": "[2]; 300 mg/Kg intraperitoneally for 10 days, 3rd vs 10th day", "result": "No reliable changes in the hemisphere volume"},
      {"measurement": "Shrinkage of the hemisphere (contraction to the damage area)", "setting": "[2]; 300 mg/Kg intraperitoneally for 10 days, on the 10th day", "result": "no shrinkage of the hemisphere was identified"},
      {"measurement": "Volume of ipsilateral hemisphere", "setting": "[2]; on the 3rd day", "result": "772.4 ± 4.5", "unit": "mm^3"},
      {"measurement": "Volume of ipsilateral hemisphere", "setting": "[2]; on the 10th day", "result": "773.17 ± 3.83", "unit": "mm^3"},
      {"measurement": "Increase of latent time of entering a dark dangerous chamber compared to HS-rats", "setting": "[3]", "result": "~3", "unit": "times"},
      {"measurement": "Rats which remembered the negative situation", "setting": "[3]", "result": "up to 40%"}
    ]}
  ]
}
